Data from PMC4336329 (PLoS ONE, 2015).
The whole screen tested about 310,000 compounds, of which about 2,200 (0.71%) showed an effect of 50% or more. The effect is printed as a negative number. The list shows a part of the results.

These compounds were tested against human ether-à-go-go-related gene (hERG) potassium channel (human, UniProt Q12809) (assay: primary screen, population patch clamp on CHO cells stably expressing hERG).
Chain of human ether-à-go-go-related gene (hERG) potassium channel (Q12809 whole entry, looked up): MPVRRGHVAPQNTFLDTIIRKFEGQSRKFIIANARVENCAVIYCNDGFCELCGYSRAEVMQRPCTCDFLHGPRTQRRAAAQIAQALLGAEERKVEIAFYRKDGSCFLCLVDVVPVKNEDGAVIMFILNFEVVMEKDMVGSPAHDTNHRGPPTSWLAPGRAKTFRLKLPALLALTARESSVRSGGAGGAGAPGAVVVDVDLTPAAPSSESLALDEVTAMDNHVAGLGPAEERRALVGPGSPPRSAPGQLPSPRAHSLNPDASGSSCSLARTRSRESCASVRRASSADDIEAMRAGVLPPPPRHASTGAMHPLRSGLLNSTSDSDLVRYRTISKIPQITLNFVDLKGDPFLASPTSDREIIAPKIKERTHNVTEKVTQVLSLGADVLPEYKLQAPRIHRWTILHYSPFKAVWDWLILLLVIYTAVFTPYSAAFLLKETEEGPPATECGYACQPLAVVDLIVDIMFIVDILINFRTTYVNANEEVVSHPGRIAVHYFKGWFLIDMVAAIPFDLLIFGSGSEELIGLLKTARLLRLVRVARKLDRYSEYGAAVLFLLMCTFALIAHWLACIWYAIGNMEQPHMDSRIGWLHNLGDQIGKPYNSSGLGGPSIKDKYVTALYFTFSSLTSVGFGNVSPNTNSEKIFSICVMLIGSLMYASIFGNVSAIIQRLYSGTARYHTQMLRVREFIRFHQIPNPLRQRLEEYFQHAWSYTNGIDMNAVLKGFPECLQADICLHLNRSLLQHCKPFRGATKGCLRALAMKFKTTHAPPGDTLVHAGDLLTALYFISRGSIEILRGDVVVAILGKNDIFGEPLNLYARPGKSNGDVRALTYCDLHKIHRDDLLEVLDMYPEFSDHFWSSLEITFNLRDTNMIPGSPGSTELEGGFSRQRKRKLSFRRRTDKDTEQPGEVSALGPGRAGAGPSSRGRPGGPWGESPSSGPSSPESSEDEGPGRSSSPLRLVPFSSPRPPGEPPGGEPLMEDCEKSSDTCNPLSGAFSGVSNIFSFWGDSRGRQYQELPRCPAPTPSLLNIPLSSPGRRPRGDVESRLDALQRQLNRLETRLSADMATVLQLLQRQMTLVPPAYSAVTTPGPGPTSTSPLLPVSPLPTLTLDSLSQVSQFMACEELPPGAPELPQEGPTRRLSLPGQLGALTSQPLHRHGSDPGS

SMILES | hERG current change (%, negative = inhibition) at 1uM
COc1ccc(-n2c(=S)[nH]c3cc(C(=O)O)ccc3c2=O)cc1 | 13.6%
Cn1c(SCC(=O)Nc2ccccc2[N+](=O)[O-])nnc1C(F)(F)F | 9.39%
CCCCN1C(=O)NC(NS(=O)(=O)c2ccc(N)cc2)(C(F)(F)F)C1=O (stereo not shown) | 2.31%
CCOC(=O)c1c(C)[nH]c(C)c1S(=O)(=O)N(C)CC(=O)Nc1cc(C)ccc1OC | -1.18%
CCc1nc2ccccc2c(=O)n1NC(=O)c1c(O)c2ccccc2[nH]c1=O | 14.2%
COc1ccc(S(=O)(=O)N2CCC(C(=O)N[C@H](C(=O)NCc3ccco3)C(C)C)CC2)cc1 | 11.8%
CN(C)CCNc1oc(COc2ccc(Cl)cc2)nc1C#N | -0.147%
Cc1ccc(C(=O)CC(=O)c2ccccc2)cc1 | 12.8%
O=S(=O)(Nc1cc(S(=O)(=O)N2CCOCC2)ccc1NCC1CCCO1)c1ccccc1 (stereo not shown) | -2.27%
COc1ccc(C2c3ccc4ccccc4c3Oc3ncn(CCCN(C)C)c(=N)c32)cc1 (stereo not shown) | -29%
Cc1ccc(C)c(C(=O)CN2C(=O)C(=O)N(C3CCCC3)C2=O)c1 | 6.11%
COC(=O)c1cc(Br)c(=O)n(-c2ccccc2F)c1 | -6.37%
O=c1c(-c2ccccc2)coc2c(CN3CCOCC3)c(O)ccc12 | -0.6%
Cc1ccc([N+](=O)[O-])c2cccnc12 | 16.1%
COc1ccc(CCC(=O)NC2CCC(C)CC2)cc1 (stereo not shown) | 16.4%
Cc1ccccc1N1CCN(C2CCCN(C(=O)CCC(=O)N(C)C)C2)CC1 (stereo not shown) | 12.3%
COc1ccc(CNc2ncc(-c3ccc(Cl)cc3)n2C)c(OC)c1OC.O=C(O)C(=O)O | -17.8%
Cl.O=C(c1cccs1)c1coc2ccc(O)c(CN(CCO)CCO)c12 | -3.86%
COC(=O)c1nnn(-c2nc(N3CCOCC3)nc(N3CCOCC3)n2)c1C | 9.72%
Cc1ccc(NC(=O)COC(=O)CCc2c(C)nc3nc(N)nn3c2C)cc1C | 5.67%
O=C(Nc1cccnc1)c1ccc(S(=O)(=O)N2CCCCCC2)cc1 | 6.27%
O=C(/C=C/c1ccccc1[N+](=O)[O-])Nc1ccccc1 | 13%

SMILES | hERG current change (%, negative = inhibition) at 1uM
O=C(c1ccccc1)c1cc(-c2ccccc2)on1 | 9.31%
O=C(Nc1cc(S(=O)(=O)N2CCOCC2)ccc1N1CCCC1)C1CC1 | 5.53%
Cc1ccccc1CNC(=O)CC1C(=O)NCCN1Cc1c(F)cccc1Cl (stereo not shown) | 11.7%
O=C(Cn1c(=O)c2cccn2c2cccnc21)NCCCN1CCN(c2ccc(F)cc2)CC1 | -48.6%
CN(C(=O)c1ccco1)c1nc(-c2ccc(F)cc2)cs1 | 6.7%
COc1cc2oc(=O)ccc2cc1[C@@H](O)[C@@H]1OC(C)(C)OC1(C)C | 1.99%
CCNc1nc(N)c(C(=O)c2ccc(Cl)s2)s1 | 15.6%
COc1ccccc1NC(=O)CCCc1nc(-c2ccc(OC)c(OC)c2)no1 | -2.19%
CC1=C/C(=N\NC(=O)c2ccccc2)CC1 | -7.9%
COc1cc(C(=O)NC(C)CCn2cccn2)ccc1OC1CCN(C(C)=O)CC1 (stereo not shown) | 5.45%
Cc1ccc(Nc2nc3ccccc3s2)c(C)c1 | 2.26%
O=C(COC(=O)CCNS(=O)(=O)c1ccc2c(c1)OCCO2)NC1CCCc2ccccc21 (stereo not shown) | 17.4%
O=C(CCCN1C(=O)c2cccc3cccc(c23)C1=O)N1CCN(c2ccccc2)CC1 | 11.6%
O=C(CN1C(=O)NC2(CCCC2)C1=O)NNC(=O)c1ccc(Cl)cc1 | -4.29%
CC(C)CCNC(=O)c1ccc(NC(=O)C2=CSCCO2)cc1 | 13.7%
CCOC(=O)N1CCN(c2c(NCC3CCCO3)c(=O)c2=O)CC1 (stereo not shown) | 6.68%
Cc1ccc2c(c1)c1c3n2CCN(C(=O)CN2CCN(C)CC2)C3CCC1 (stereo not shown) | 4.91%
CC(C)(C)c1ccc(OC(=O)c2ccccc2)cc1 | 16.6%
CCN(CC)CCOc1ccc2c(c1)C(=NO)c1cc(OCCN(CC)CC)ccc1-2.Cl | 1.1%
CCCn1nnc(NC(=O)COc2ccc(CC)cc2)n1 | 0.793%
COCCCNC(=O)c1ccc2nc3ccccc3c(=O)n2c1 | 18.8%
CCO/N=C/C(=O)Nc1ccc(F)cc1F | 13.3%

SMILES | hERG current change (%, negative = inhibition) at 1uM
CC(=O)c1cc(CN2CCN(Cc3ccc(C)cc3)C(CCO)C2)cs1 (stereo not shown) | -33.2%
COc1ccccc1C(=O)NCC(=O)N/N=C/c1cccc(Cl)c1 | -14.8%
CCOC(=O)CNc1c(-c2ccc(Cl)cc2)nc2cnccn12 | -11.5%
Cl.O=C(NCC(c1cccs1)N1CCOCC1)c1ccc(Cl)s1 (stereo not shown) | -7.66%
COc1ccc2nc(NC(=O)c3cnccn3)sc2c1 | 14.5%
COc1ccc(CNC(=O)Cc2csc(Nc3nc(=S)[nH]c4ccccc34)n2)cc1 | 4.29%
CCCc1nc2oc3ccccc3c(=O)c2c(=O)n1-c1ccccc1 | 14.5%
O=C(CN1CCN(c2ccccc2F)CC1)c1ccc2cc[nH]c2c1 | -45.6%
CCCCc1nnc(NC(=O)CS(=O)(=O)Cc2ccccc2)s1 | 13.4%
O=S(=O)(c1ccc2ccccc2c1)N1CCN=C1SCc1cccnc1 | 1.98%
O=C(CCc1nc2ccccc2c(=O)[nH]1)N1CCN(S(=O)(=O)c2cccc(F)c2)CC1 | 1.9%
CNC(=O)c1sc(Nc2ccc(OCc3ccccc3)cc2)nc1C | 13.1%
Cl.O=C(O)c1cc(S(=O)(=O)N2CCN(C(c3ccccc3)c3ccccc3)CC2)ccc1Cl | 4.17%
O=C(Nc1cccc(CNCCc2c[nH]c3ccccc23)c1)c1ccccc1Cl.O=C(O)C(=O)O | 3.45%
Cc1sc2ncn(CC(=O)N3CCN(c4ccc(F)cc4)CC3)c(=O)c2c1S(=O)(=O)N1CCOCC1 | -33.1%
Cc1cc(C)cc(NS(=O)(=O)c2c(C)[nH]c(=O)[nH]c2=O)c1 | 14.8%
COc1cccc(NC(=O)c2ccc3c(c2)N(CC(=O)N2CCOCC2)C(=O)C(C)(C)O3)c1 | 10.4%
Cl.OC(COc1ccccc1)CN1C2=NCCCN2c2ccccc21 (stereo not shown) | -54.6%
COc1cc(C(=O)N2CCN(S(=O)(=O)c3ccc(F)cc3)CC2)cc(OC)c1OC | 0.916%
O=C(COc1ccccc1[N+](=O)[O-])N1CCCc2ccccc21 | 9.45%
Cc1ccc(Cl)cc1NC(=S)NCCCSC1CCCCC1 | 3.51%
COc1ccccc1Nc1nc(-c2sc(NC(=O)c3ccco3)nc2C)cs1 | 4.48%

SMILES | hERG current change (%, negative = inhibition) at 1uM
Cc1ccc(NC(=O)CCC(=O)N2CCOc3ccccc32)c(Cl)c1 | 10.8%
CCOC(=O)C1=C(O)C(=O)N(Cc2ccc(C(C)(C)C)cc2)CC1 | 15.9%
CC(C)[C@H](NC(=O)N1c2ccccc2NC(=O)[C@@H]1C(C)C)C(=O)N1CCC(C(=O)O)CC1 | 4.61%
CC(=O)c1ccc(-n2c(C)ccc2-c2ccccc2)cc1 | 3.29%
O=C(CCn1cnc2ccccc21)N/N=C/c1ccccc1O | 4.34%
COc1ccc(CCn2c(=O)c3cccnc3n(Cc3cccc([N+](=O)[O-])c3)c2=O)cc1OC | -1.88%
COc1ccc(C(=O)CC(=O)c2ccc(C)cc2)c(O)c1 | 13.8%
CS(=O)(=O)c1ccc(C(=O)Nc2ccccc2N2CCOCC2)c(Cl)c1 | 6.04%
CCOC(=O)C1=C(CSc2nc(C)cc(C)c2C#N)OC(N)=C(C#N)C1c1cccs1 (stereo not shown) | 1.03%
CCOC(=O)c1ccc(N2C(=O)CC(N3CC=C(c4ccc(F)cc4)CC3)C2=O)cc1 (stereo not shown) | 11.7%
Cc1sc(NC(=S)NC(=O)C(C)(C)C)c(C(N)=O)c1C | 6.85%
COCCn1c(N)c(C(=S)NC(=O)c2cccs2)c(=O)[nH]c1=O | 15%
CCc1c(C)nc2ncnn2c1Nc1ccc(C)c(C)c1 | -2.55%
COc1ccc2[nH]cc(CCNC(=O)C3CCCO3)c2c1 (stereo not shown) | 6.06%
CC1=C(C(=O)Nc2ccccc2C(=O)N2CCCCC2)SCCO1 | 13.4%
COCCNC(=O)c1onc(CSc2nc3ccccc3[nH]2)c1C(=O)NCCOC | -1.43%
CCCCCCNC(=O)C(C#N)c1nc2ccccc2nc1N1CCCC1 (stereo not shown) | 6.57%
COc1ccc2c(c1OC)C(=O)OC2c1c(O)n(C2CCCCC2)c(=O)[nH]c1=O (stereo not shown) | -18.5%
CC(C)c1ccc(NC(=S)NC2CCCCCC2)cc1 | -0.348%
COc1cccc(CNC(=O)C2CCN(S(=O)(=O)c3cccc4nonc34)CC2)c1 | 13.4%
CCNC(=O)C(=O)NCC1CCCN1S(=O)(=O)c1cccs1 (stereo not shown) | 11.4%
C/C=C/c1ccc(OCCCNC)c(OC)c1.O=C(O)C(=O)O | -10.9%
